Measurements published in the supplement of paper PMC10037445.
In all, about 2,900 compounds were measured (“IRF Lucia reporter activity, fold change vs agonist alone”: median about 0.9, highest 2% from about 2.8 on). The list shows a part of the results.

How the values were obtained:
[1] = test system: RAW-Dual; experiment: IRF Lucia reporter activity, fold change vs agonist alone; cytotoxicity flag (confluency mask): not cytotoxic; higher = enhanced IRF activity
Summary of the method: (§1)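 Cytotoxic wells were those whose IncuCyte confluency was below 70% of agonist controls in both mask sets. The cells were RAW-Dual macrophages at 50,000 cells/well in DMEM on 384-well plates, dosed with 50 nL of library stock by pin tool, stimulated with a PRR agonist 1 h later, and kept at 37 °C, 5% CO2 for 20 hours. IRF and NF-κB reporter activity, as fold change over agonist-alone wells, came from supernatant read by QuantiLuc luminescence and QuantiBlue absorbance, respectively.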

[2] = test system: RAW-Dual; experiment: IRF Lucia reporter activity, fold change vs agonist alone; higher = enhanced IRF activity; conditions: agonist: MPLA (TLR4) […]
Summary of the method: as §1

[3] = test system: RAW-Dual; experiment: IRF Lucia reporter activity, fold change vs agonist alone; cytotoxicity flag (confluency mask): cytotoxic (confluency <70% of control); higher = enhanced IRF activity
Summary of the method: as §1

[4] = agonist: 3'3'-cGAMP (STING) 10 ug/mL
[5] = library stock concentration (final ~1000-fold dilution): 10 mM, cytotoxicity flag (confluency mask): not cytotoxic
[6] = library stock concentration (final ~1000-fold dilution): 2 mM, cytotoxicity flag (confluency mask): not cytotoxic

## C=C(C)C1Cc2c(ccc3c2OC2COc4cc(OC)c(OC)cc4C2C3=O)O1 (stereo unspecified) (library stock concentration (final ~1000-fold dilution): 10 mM)
[1]; [4]
  IRF Lucia reporter activity: 0.248
[1]; agonist: LPS (TLR4) 0.1 ug/mL
  IRF Lucia reporter activity: 1.54

## C=C(C)C1Cc2c(ccc3c2OC2COc4cc(OC)c(OC)cc4C2C3=O)O1 (stereo unspecified)
[2]; [5]
  IRF Lucia reporter activity: 1.66

## Cn1c(CCCCCCC(=O)NO)nc2cc(N(CCCl)CCCl)ccc21 (library stock concentration (final ~1000-fold dilution): 10 mM)
[3]; [4]
  IRF Lucia reporter activity: 0.0439
[3]; agonist: LPS (TLR4) 0.1 ug/mL
  IRF Lucia reporter activity: 0.161

## CCCCCc1cc(O)cc(O)c1
[2]; [5]
  IRF Lucia reporter activity: 1.23

## CCCCCc1cc(O)cc(O)c1 (library stock concentration (final ~1000-fold dilution): 10 mM)
[1]; [4]
  IRF Lucia reporter activity: 0.738
[1]; agonist: LPS (TLR4) 0.1 ug/mL
  IRF Lucia reporter activity: 1.1

## COc1cc(C2c3cc4c(cc3C(O)C3COC(=O)C23)OCO4)cc(OC)c1O (stereo unspecified) (library stock concentration (final ~1000-fold dilution): 10 mM)
[1]; [4]
  IRF Lucia reporter activity: 0.141
[1]; agonist: LPS (TLR4) 0.1 ug/mL
  IRF Lucia reporter activity: 1.66

## COc1cc(C2c3cc4c(cc3C(O)C3COC(=O)C23)OCO4)cc(OC)c1O (stereo unspecified)
[2]; [5]
  IRF Lucia reporter activity: 1.84

## C=C1C2CC3(C1O)C1CC4C5(C)CCC(O)C4(C1N(CC)C5)C3CC2=O (stereo unspecified) (library stock concentration (final ~1000-fold dilution): 10 mM)
[1]; [4]
  IRF Lucia reporter activity: 0.922
[1]; agonist: LPS (TLR4) 0.1 ug/mL
  IRF Lucia reporter activity: 1.04

## Cl.Clc1ccc(C(OCCN2CCCCC2)c2ccccc2)cc1 (stereo unspecified) (library stock concentration (final ~1000-fold dilution): 10 mM)
[3]; [4]
  IRF Lucia reporter activity: 0.603
[3]; agonist: LPS (TLR4) 0.1 ug/mL
  IRF Lucia reporter activity: 1.57

## Cl.Clc1ccc(C(OCCN2CCCCC2)c2ccccc2)cc1 (stereo unspecified)
[2]; library stock concentration (final ~1000-fold dilution): 10 mM, cytotoxicity flag (confluency mask): cytotoxic (confluency <70% of control)
  IRF Lucia reporter activity: 1.32

## Cl.Cl.c1ccc(C2CC2NC2CCNCC2)cc1 (stereo unspecified) (library stock concentration (final ~1000-fold dilution): 10 mM)
[1]; [4]
  IRF Lucia reporter activity: 0.792
[1]; agonist: LPS (TLR4) 0.1 ug/mL
  IRF Lucia reporter activity: 1.13

## Cl.Cl.c1ccc(C2CC2NC2CCNCC2)cc1 (stereo unspecified)
[2]; [5]
  IRF Lucia reporter activity: 1

## CN1C2CCC1CC(OC(=O)C(CO)c1ccccc1)C2.CN1C2CCC1CC(OC(=O)C(CO)c1ccccc1)C2.O.O=S(=O)(O)O (stereo unspecified)
[2]; [5]
  IRF Lucia reporter activity: 0.941

## CN1C2CCC1CC(OC(=O)C(CO)c1ccccc1)C2.CN1C2CCC1CC(OC(=O)C(CO)c1ccccc1)C2.O.O=S(=O)(O)O (stereo unspecified) (library stock concentration (final ~1000-fold dilution): 10 mM)
[1]; [4]
  IRF Lucia reporter activity: 0.993
[1]; agonist: LPS (TLR4) 0.1 ug/mL
  IRF Lucia reporter activity: 0.828

## Br.C[N+]1([O-])C2CC(OC(=O)C(CO)c3ccccc3)CC1C1OC12.O (stereo unspecified) (library stock concentration (final ~1000-fold dilution): 10 mM)
[1]; [4]
  IRF Lucia reporter activity: 1.02
[1]; agonist: LPS (TLR4) 0.1 ug/mL
  IRF Lucia reporter activity: 0.995

## Br.C[N+]1([O-])C2CC(OC(=O)C(CO)c3ccccc3)CC1C1OC12.O (stereo unspecified)
[2]; [5]
  IRF Lucia reporter activity: 1.11

## BrC1C(Br)C(Br)C(Br)C(Br)C1Br (stereo unspecified)
[2]; [6]
  IRF Lucia reporter activity: 1.23

## BrC1C(Br)C(Br)C(Br)C(Br)C1Br (stereo unspecified) (library stock concentration (final ~1000-fold dilution): 2 mM)
[1]; [4]
  IRF Lucia reporter activity: 0.247
[1]; agonist: LPS (TLR4) 0.1 ug/mL
  IRF Lucia reporter activity: 1.09

## c1cc2c(cc1C1OCC3C(c4ccc5c(c4)OCO5)OCC13)OCO2 (stereo unspecified) (library stock concentration (final ~1000-fold dilution): 10 mM)
[1]; [4]
  IRF Lucia reporter activity: 0.953
[1]; agonist: LPS (TLR4) 0.1 ug/mL
  IRF Lucia reporter activity: 0.811

## c1cc2c(cc1C1OCC3C(c4ccc5c(c4)OCO5)OCC13)OCO2 (stereo unspecified)
[2]; [5]
  IRF Lucia reporter activity: 0.972

## CCC1(O)C(=O)OCc2c1cc1n(c2=O)Cc2cc3ccccc3nc2-1 (stereo unspecified) (library stock concentration (final ~1000-fold dilution): 2 mM)
[1]; [4]
  IRF Lucia reporter activity: 1.91
[1]; agonist: LPS (TLR4) 0.1 ug/mL
  IRF Lucia reporter activity: 2.77

## CCC1(O)C(=O)OCc2c1cc1n(c2=O)Cc2cc3ccccc3nc2-1 (stereo unspecified)
[2]; [6]
  IRF Lucia reporter activity: 1.65

## CCC1(c2cccc(O)c2)CCCCN(C)C1.Cl (stereo unspecified) (library stock concentration (final ~1000-fold dilution): 10 mM)
[1]; [4]
  IRF Lucia reporter activity: 0.976
[1]; agonist: LPS (TLR4) 0.1 ug/mL
  IRF Lucia reporter activity: 0.972

## CCC1(c2cccc(O)c2)CCCCN(C)C1.Cl (stereo unspecified)
[2]; [5]
  IRF Lucia reporter activity: 1

## C=CC1CN2CCC3(C(=O)Nc4ccccc43)C2CC1/C(=C\OC)C(=O)OC (stereo unspecified) (library stock concentration (final ~1000-fold dilution): 10 mM)
[1]; [4]
  IRF Lucia reporter activity: 1.1
[1]; agonist: LPS (TLR4) 0.1 ug/mL
  IRF Lucia reporter activity: 0.887

## c1ccc2c(c1)[I+]c1ccccc1-2 (library stock concentration (final ~1000-fold dilution): 10 mM)
[1]; [4]
  IRF Lucia reporter activity: 0.573
[1]; agonist: LPS (TLR4) 0.1 ug/mL
  IRF Lucia reporter activity: 1.97
[3]; [4]
  IRF Lucia reporter activity: 0.184
[3]; agonist: LPS (TLR4) 0.1 ug/mL
  IRF Lucia reporter activity: 0.265

## CCC1=CC2CN3CCc4c([nH]c5ccccc45)C(C(=O)OC)(C2)C13 (stereo unspecified) (library stock concentration (final ~1000-fold dilution): 10 mM)
[1]; [4]
  IRF Lucia reporter activity: 0.847
[1]; agonist: LPS (TLR4) 0.1 ug/mL
  IRF Lucia reporter activity: 1.1

## CCC1=CC2CN3CCc4c([nH]c5ccccc45)C(C(=O)OC)(C2)C13 (stereo unspecified)
[2]; [5]
  IRF Lucia reporter activity: 1.1

## Cl.N=C(N)NN
[2]; [5]
  IRF Lucia reporter activity: 0.954

## Cl.N=C(N)NN (library stock concentration (final ~1000-fold dilution): 10 mM)
[1]; [4]
  IRF Lucia reporter activity: 1.02
[1]; agonist: LPS (TLR4) 0.1 ug/mL
  IRF Lucia reporter activity: 1.41

## CCC1(c2ccc(N)cc2)CCC(=O)NC1=O (stereo unspecified)
[2]; [5]
  IRF Lucia reporter activity: 0.959

## CCC1(c2ccc(N)cc2)CCC(=O)NC1=O (stereo unspecified) (library stock concentration (final ~1000-fold dilution): 10 mM)
[1]; [4]
  IRF Lucia reporter activity: 1.05
[1]; agonist: LPS (TLR4) 0.1 ug/mL
  IRF Lucia reporter activity: 0.98

## CCC12C=CCN3CCC4(c5ccc(OC)cc5N(C)C4C(O)(C(=O)OC)C1OC(C)=O)C32 (stereo unspecified)
[2]; [5]
  IRF Lucia reporter activity: 1.06

## CCC12C=CCN3CCC4(c5ccc(OC)cc5N(C)C4C(O)(C(=O)OC)C1OC(C)=O)C32 (stereo unspecified) (library stock concentration (final ~1000-fold dilution): 10 mM)
[1]; [4]
  IRF Lucia reporter activity: 0.891
[1]; agonist: LPS (TLR4) 0.1 ug/mL
  IRF Lucia reporter activity: 1.25

## Br.NCCc1cc(O)c(O)cc1O (library stock concentration (final ~1000-fold dilution): 10 mM)
[1]; [4]
  IRF Lucia reporter activity: 0.589
[1]; agonist: LPS (TLR4) 0.1 ug/mL
  IRF Lucia reporter activity: 1.21

## Br.NCCc1cc(O)c(O)cc1O
[2]; [5]
  IRF Lucia reporter activity: 0.982

## Cl.NCCc1ccc(S(=O)(=O)F)cc1 (library stock concentration (final ~1000-fold dilution): 10 mM)
[1]; [4]
  IRF Lucia reporter activity: 0.879
[1]; agonist: LPS (TLR4) 0.1 ug/mL
  IRF Lucia reporter activity: 1.15

## Cl.NCCc1ccc(S(=O)(=O)F)cc1
[2]; [5]
  IRF Lucia reporter activity: 1.36

## COc1ccc(O)c(C(C)(C)C)c1 (library stock concentration (final ~1000-fold dilution): 10 mM)
[1]; [4]
  IRF Lucia reporter activity: 0.973
[1]; agonist: LPS (TLR4) 0.1 ug/mL
  IRF Lucia reporter activity: 1.09

## COc1ccc2c3c([nH]c2c1)C(C)=NCC3 (library stock concentration (final ~1000-fold dilution): 10 mM)
[1]; [4]
  IRF Lucia reporter activity: 0.828
[1]; agonist: LPS (TLR4) 0.1 ug/mL
  IRF Lucia reporter activity: 0.947

## COc1ccc2c3c([nH]c2c1)C(C)=NCC3
[2]; [5]
  IRF Lucia reporter activity: 0.921
